Experimental data: PubChem BioAssay AID624417 (National Center for Advancing Translational Sciences (NCATS), 2012)
The campaign covered roughly 410,000 compounds. About 6,400 (1.6%) were called active. Inconclusive means that the source gave no clear call. Such entries were picked first, then a sample of the others. Calls follow the shape of the dose curve; as a rule, active = well fitted inhibition curve with a large enough effect; inconclusive = small, poorly fitted or top-dose-only effect; inactive = no such curve, though single readings can be large or run the other way. No potency is given beside an inconclusive call; the fits are too rough.

molecular target: Glucagon-like peptide 1 receptor (Homo sapiens) (UniProt P43220); test: qHTS of GLP-1 Receptor Inverse Agonists (Inhibition Mode); conditions: HEK293 GLP-1R CRE-luciferase, luminescence, 24 h; Potency: GLP-1R form is constitutively active unless noted; activity change, negative = inhibition: at 38.3 µM (top of the series) unless noted; also: nearly all actives have a fitted effect of over 55% in size
Procedure, shortened: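 HEK293 cells stably co-expressing a cAMP-responsive luciferase reporter and constitutively active GLP-1R were seeded, incubated 12 h, then exposed to compounds for 24 h at 37 C. Luminescence was read 12 min after detection reagent; inverse agonists lower signal.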
% is scaled to controls: 0 for no effect and ±100 for the full control effect; potency is read from the fitted curve at half-maximal effect; tags tell the direction and shape of the fitted curve.

UniProt P43220, sequence (P43220 whole entry, looked up): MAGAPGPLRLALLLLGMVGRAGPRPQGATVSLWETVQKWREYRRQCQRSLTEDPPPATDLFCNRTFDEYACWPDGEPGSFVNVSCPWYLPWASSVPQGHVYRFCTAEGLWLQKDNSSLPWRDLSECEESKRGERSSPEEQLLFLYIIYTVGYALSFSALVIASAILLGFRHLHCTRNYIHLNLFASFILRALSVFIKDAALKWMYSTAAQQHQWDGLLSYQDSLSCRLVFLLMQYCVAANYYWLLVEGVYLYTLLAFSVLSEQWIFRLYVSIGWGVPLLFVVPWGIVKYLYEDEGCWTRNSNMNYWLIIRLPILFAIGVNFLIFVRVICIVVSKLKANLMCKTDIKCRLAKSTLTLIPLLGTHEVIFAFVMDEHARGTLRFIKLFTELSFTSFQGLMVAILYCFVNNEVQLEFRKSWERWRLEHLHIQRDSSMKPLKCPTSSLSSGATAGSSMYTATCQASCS

Compound | Potency | activity change, negative = inhibition
CCOC(=O)[C@]12Cc3ccccc3[C@H]1N(Cc1ccccc1)C(=O)c1cc(F)c(F)cc12 | inconclusive [inhibitor, single point] | –
CC(C)C(=O)c1cn(Cc2ccccc2C#N)c2ccccc12 | inconclusive [inhibitor, single point] | –
COc1ccc(-n2c(-c3ccc(C)cc3)nc3ccccc3c2=O)cc1 | inconclusive [inhibitor, single point] | –
COC(=O)C1=C(C(=O)OC)C2c3ccccc3C1c1ccccc12 | inconclusive [inhibitor, partial curve, poor fit] | –
COc1ccc(/C=C/C(=O)Nc2ccc(C)cc2)cc1 | inconclusive [inhibitor, single point] | –
O=C(Nc1ccc(Oc2ccccc2)cc1)c1ccc(F)c(S(=O)(=O)N2CCN(c3cccc(Cl)c3)CC2)c1 | inconclusive [inhibitor, full curve] | –
O=C(Nc1nc2c(Cl)cccc2s1)c1ccc(S(=O)(=O)N2CCc3ccccc32)cc1 | inconclusive [inhibitor, partial curve, poor fit] | –
CCOP(=O)(OCC)C(Nc1cccc(C)c1)c1ccc(F)cc1 (stereo not drawn) | inconclusive [inhibitor, single point] | –
COc1ccc(C(=O)C(Cc2ccccc2)N(C)C)cc1 (stereo not drawn) | – | inactive: 4.87%
CC/C(CC(c1ccccc1)c1c(O)c2ccccc2oc1=O)=N\NC(N)=S (stereo not drawn) | inconclusive [inhibitor, single point] | –
CCOc1cc2c(cc1OCC)-n1cccc1C(c1cc(OC)ccc1F)NC2 (stereo not drawn) | inconclusive [inhibitor, single point] | –
O=C(COc1ccccc1Cl)N1CCCC(N2CCN(c3ccc(F)cc3)CC2)C1 (stereo not drawn) | inconclusive [inhibitor, partial curve, poor fit] | –
O=C(CN1CCCC1)Nc1ccc(Cl)cc1C(=O)c1ccccc1 | inconclusive [inhibitor, partial curve, poor fit] | –
O=C(NCc1ccccc1)c1cccn(Cc2ccccc2)c1=O | inconclusive [inhibitor, single point] | –
Cc1ccccc1C(=O)Nc1sc2c(c1C(=O)O)CCC(C(C)(C)C)C2 (stereo not drawn) | inconclusive [inhibitor, partial curve, poor fit] | –
Cc1nn(Cc2ccccc2)c(C)c1C=C1C(=O)NC(=S)NC1=O | – | inactive: 9.19%
O=S1(=O)N(Cc2ccccc2)CCCN1Cc1ccc(F)cc1Cl | inconclusive [inhibitor, single point] | –
Cc1c(C(=O)c2cccc3ccccc23)c2cccc3c2n1[C@H](CN1CCOCC1)CO3 | inconclusive [inhibitor, partial curve, poor fit] | –
Cc1cccc(Cn2cc(C=O)c3ccccc32)c1 | active: 3.98 µM [setting not given] | –
CN(C)c1cccc(C(=O)Nc2nc3ccc(S(=O)(=O)NC(C)(C)C)cc3s2)c1 | inconclusive [inhibitor, partial curve, poor fit] | –
CC(C)C[C@H]1COc2cccc(N3CCN(C)CC3)c2S(=O)(=O)N1 | inconclusive [inhibitor, partial curve, poor fit] | –

Compound | Potency | activity change, negative = inhibition
O=c1c2ccccc2nc(-c2cccs2)n1-c1cnccn1 | inconclusive [inhibitor, single point] | –
CCOc1ccc(CN2CCCC(C(=O)c3ccccc3OC)C2)cc1 (stereo not drawn) | inconclusive [inhibitor, partial curve, poor fit] | –
Cc1ccc(C(C)C)c(OCCn2c(=O)oc3ccccc32)c1 | inconclusive [inhibitor, partial curve, poor fit] | –
CC(C)(C)c1ccc(O)c(N=Cc2c(O)ccc3ccccc23)c1 | inconclusive [inhibitor, partial curve, poor fit] | –
CCN1CCN(C(=O)COc2ccc3oc4c(c3c2)CCCC4)CC1 | inconclusive [inhibitor, partial curve, poor fit] | –
O=C(Nc1ccc(Br)cc1C(=O)c1ccccc1)c1ccccc1 | inconclusive [inhibitor, single point] | –
CCN1CCN(c2cc(N3CCCC3)c(F)cc2[N+](=O)[O-])CC1 | inconclusive [inhibitor, single point] | –
COC(=O)C1=C(c2cccc(OCc3ccccc3)c2)C[C@@H]2CC[C@H]1N2C(=O)NCc1cccc(C(F)(F)F)c1 | active: 11.2 µM [setting not given] | –
O=C(Nc1cccc(C(F)(F)F)c1)c1cccn(Cc2ccc3c(c2)OC(F)(F)O3)c1=O | inconclusive [inhibitor, single point] | –
O=S(=O)(NC1CCCCC1)OCC(Cl)(Cl)Cl | inconclusive [inhibitor, single point] | –
CCOC(=O)C1=C(C)c2ccccc2OC1(C(=O)OCC)c1ccccc1 (stereo not drawn) | inconclusive [inhibitor, single point] | –
O=C(N/N=C/c1c(O)n(Cc2ccc(F)cc2)c(=O)[nH]c1=O)c1ccccc1O | inconclusive [inhibitor, single point] | –
CCc1ccc(CNCCc2ccc(F)cc2)cc1 | – | inactive: -23.1%
COc1ccc(-n2nnnc2C(CCSC)N2CCC(n3c(=O)[nH]c4ccccc43)CC2)cc1 (stereo not drawn) | inconclusive [inhibitor, single point] | –
CCOc1ccc(OCC)c(NC(=O)CN2CCN(c3ccc(C)cc3C)CC2)c1 | inconclusive [inhibitor, full curve, poor fit] | –
O=c1[nH]c2ccccc2n1C1CCN(C(c2cccs2)c2nnnn2Cc2ccccc2)CC1 (stereo not drawn) | inconclusive [inhibitor, full curve, poor fit] | –
c1ccc(C2NCc3ccccc3-n3cccc32)cc1 (stereo not drawn) | inconclusive [inhibitor, single point] | –
COc1cc(N)ccc1Cc1ccc(N)cc1OC | inconclusive [inhibitor, single point] | –
Cc1ccccc1C(=O)Nc1ccc2nc(SCC(=O)N(C)c3ccccc3)sc2c1 | inconclusive [inhibitor, partial curve, poor fit] | –
Fc1ccc(C2NCCc3[nH]cnc32)cc1 (stereo not drawn) | – | inactive: 7.49%
CN(C)CC1Oc2ccccc2OC1(O)c1ccccc1 (stereo not drawn) | inconclusive [inhibitor, single point] | –

Compound | Potency | activity change, negative = inhibition
C[C@H]1CN([C@@H](C)CO)C(=O)CCCn2nncc2CO[C@H]1CN(C)C(=O)Oc1cccc2ccccc12 | – | inactive: 12.5%
Nc1ccc(Cl)cc1C(=O)c1ccccc1Cl | inconclusive [inhibitor, single point] | –
O=C1NC(=O)C(CCc2ccncc2)(Cc2cccc(Cl)c2Cl)C(=O)N1c1ccc(Br)cc1 (stereo not drawn) | inconclusive [inhibitor, partial curve, poor fit] | –
C=CCn1c(O)c(C(CC)=Nc2ccc(C(=O)O)cc2)c(=O)[nH]c1=O | – | inactive: -7.79%
CCCCn1c(=O)c(C(=O)NCCc2ccccc2)c(O)c2ccccc21 | – | inactive: 11.5%
Cc1[nH]c2ccccc2c1CCCNC1CCCCC1 | inconclusive [inhibitor, single point] | –
COc1ccc(O)c(CN2CCCC(C(=O)c3ccccc3SC)C2)c1 (stereo not drawn) | inconclusive [inhibitor, single point] | –
CCC1(C)CC(CCNCc2ccc(N(C)C)cc2)(c2ccc(F)cc2)CCO1 (stereo not drawn) | inconclusive [inhibitor, partial curve, poor fit] | –
COc1ccc(C(=O)Nc2ccc3c(c2)N(C)C(=O)c2ccccc2S3)cc1OC | inconclusive [inhibitor, partial curve] | –
O=C(O)C1CC2(Cl)C(Cl)=C(Cl)C1(Cl)C2(Cl)Cl (stereo not drawn) | inconclusive [inhibitor, partial curve] | –
Cc1ccc(C(C)C)cc1OCC(=O)Nc1nnc(C2CC2)s1 | inconclusive [inhibitor, partial curve, poor fit] | –
COc1ccc(-n2nnnc2C(c2cc3ccccc3o2)N2CCC(n3c(=O)[nH]c4ccccc43)CC2)cc1 (stereo not drawn) | inconclusive [inhibitor, partial curve, poor fit] | –
NC(=O)c1ccc(N)nc1 | inconclusive [inhibitor, single point] | –
CN1C(=O)C(=Cc2ccccc2OS(=O)(=O)c2ccccc2)C(=O)N(C)C1=O | – | inactive: -27.5%
CCCCc1nc2ccccc2c(=O)n1-c1ccc(O)cc1 | active: 2.24 µM [setting not given] | –
N[C@@H](Cc1ccc(N(CCCl)CCCl)cc1)C(=O)O | inconclusive [inhibitor, partial curve] | –
O=C1NC(=O)C(=Cc2csc3ccccc23)C(=O)N1 | – | inactive: -2.82%
COOCC1(C(=O)OC)C[C@H](c2ccc(OC)cc2)N(Cc2ccccc2OC)[C@@H]1c1ccccc1C (stereo partly drawn) | inconclusive [inhibitor, single point] | –
CCOc1ccc(NC(=O)c2ccc(F)c(S(=O)(=O)NCc3ccc4c(c3)OCO4)c2)cc1 | inconclusive [inhibitor, single point] | –
CCN1CCN(c2ccc(NC(=O)C(C)C)cc2Cl)CC1 | inconclusive [inhibitor, partial curve] | –
O=C(c1cc2cc(Cl)ccc2[nH]1)N1CCC2(CC1)OCCO2 | inconclusive [inhibitor, single point] | –
